Results as given in the supplement of paper PMC9174493.
This is one part of the list. Single values of this set are uncertain. Values with irradiation are relative to irradiated vehicle.

System: A549-Dual
Experiment: ISRE reporter (Lucia luciferase) activity, viability-corrected, relative to vehicle (fold change vs vehicle); higher = more activation of STING-IRF / NF-kB immune response reporter
Details: 10 µM; irradiation: none

SMILES	ISRE reporter
C#CC1(OC(C)=O)CCC2C3CCC4=CC(OC(C)=O)CCC4C3CCC21C (stereo not given) [Ethynodiol diacetate]	1.35
O=C1CC(c2ccc(O)c(O)c2)Oc2cc(O)cc(O)c21 (stereo not given) [Eriodictyol]	4.71
OCC(CO)NC1CC(O)(CO)C(O)C(O)C1O (stereo not given) [Voglibose]	0.749
Nc1ncnc2c1ncn2C1OC(COP(=O)(O)OP(=O)([O-])OP(=O)([O-])O)C(O)C1O.[Na+].[Na+] (stereo not given) [Adenosine disodium triphosphate]	0.569
CC(O)C1C(=O)N2C(C(=O)O)=C(SCCNC=N)CC12.O (stereo not given) [Imipenem]	0.922
